The text below walks through data of the supplement of paper PMC10369915.

This is one part of the list. Rule as the data show it: active = 3.2 or more and inactive = the rest. Only a few entries rise above the background.
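Also: displayed peptides selected on beads carrying the immobilized SH2 domain, with library peptides lacking any tyrosine serving as negative controls.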

For one experiment, the target named is SHP2 C-SH2 domain E139D. Kind of experiment: enrichment score (SH2-bound / input frequency) (ratio); bacterial display of known human phosphotyrosine sites (pTyr-Var adds point mutants) read by sequencing; higher = stronger binding; tyrosines were phosphorylated by kinases first. The following applies: peptide library: pTyr-Var.
For SLAARYYNWVS [FLT4_Y1230], the enrichment score was active: 4.12.
GRVLGYGAFRK [FLT4_Y853_G857R]: the enrichment score is inactive: 0.354.
On to KGEDFYCVTYH [FHL1_Y149_C153Y], for which the enrichment score is inactive: 0.67.
As to GEVLVYVEDPA [FLNA_Y319], the enrichment score is inactive: 0.627.
The same measure, in the same setting: for SRGSSYNSIPK [FLNC_Y2625_S2626N] the value was inactive: 0.723; for HQPGEYIFHAE [FLT3_Y416], inactive: 0.979; for NAGAFYVLSTL [FLVCR2_Y325_A326V], inactive: 0.722.
Still for that read-out and setting: for EVNQDYGLDPK [FH_Y110] the value was inactive: 0.53; for TYAVSYLPDMS [FLNC_Y1602_T1599A], inactive: 0.958; for KPNMNYDKLSR [FLI1_Y332], inactive: 0.624.
Take GGQVFYNSEFG [FLT4_Y1333_YF]: the enrichment score is inactive: 1.1.
In the case of KPNMNYDKLSQ [FLI1_Y332_R337Q], the enrichment score was inactive: 0.651.
Same read-out and setting: for KSEKVYTRHGV [FLOT1_Y56] the value was inactive: 0.807; for FRVDCYKNFVA [FHL1_Y213_C209R_YF], inactive: 1.03.
As to TFAVSYLPDMS [FLNC_Y1602_T1599A_YF], the enrichment score was inactive: 1.09.
In the case of HQPGEYLFHAE [FLT3_Y416_I417L], the enrichment score is inactive: 0.749.
Same read-out and setting: the result for YTGSTYRVGDT [FN1_Y106_N104S] reads inactive: 0.542.
For QPGTDYKIYLY [FN1_Y1970], the enrichment score is inactive: 0.817.

In the next experiment the target is SHP2 C-SH2 domain wild-type. The description is as above. The following applies: peptide library: pTyr-Var.
Take SLAARYYNWVS [FLT4_Y1230]: the enrichment score is active: 3.72.
For the molecule GRVLGYGAFRK [FLT4_Y853_G857R], the enrichment score was inactive: 0.237.
On the same count and under the same terms, for KGEDFYCVTYH [FHL1_Y149_C153Y] the value was inactive: 1.07; for GEVLVYVEDPA [FLNA_Y319], inactive: 0.663.
Regarding SRGSSYNSIPK [FLNC_Y2625_S2626N], the enrichment score is inactive: 0.558.
On the same count and under the same terms, for HQPGEYIFHAE [FLT3_Y416] the value was inactive: 0.512.
For the molecule NAGAFYVLSTL [FLVCR2_Y325_A326V], the enrichment score is inactive: 0.86.
Take EVNQDYGLDPK [FH_Y110]: the enrichment score is inactive: 0.673.
For TYAVSYLPDMS [FLNC_Y1602_T1599A], the enrichment score is inactive: 0.855.
Still for that read-out and setting: for KPNMNYDKLSR [FLI1_Y332] the value was inactive: 0.683; for GGQVFYNSEFG [FLT4_Y1333_YF], inactive: 1.21; for KPNMNYDKLSQ [FLI1_Y332_R337Q], inactive: 0.583.
KSEKVYTRHGV [FLOT1_Y56]: the enrichment score was inactive: 0.963.
In the case of FRVDCYKNFVA [FHL1_Y213_C209R_YF], the enrichment score was inactive: 1.14.
Consider TFAVSYLPDMS [FLNC_Y1602_T1599A_YF], for which the enrichment score is inactive: 0.975.
Still for that read-out and setting: the result for HQPGEYLFHAE [FLT3_Y416_I417L] reads inactive: 1.16.
Take YTGSTYRVGDT [FN1_Y106_N104S]: the enrichment score is inactive: 0.611.
For QPGTDYKIYLY [FN1_Y1970], the enrichment score was inactive: 0.863.

A further experiment has as its target SHP2 N-SH2 domain L43F. Described as above. The conditions noted are these: peptide library: pTyr-Var.
Take SLAARYYNWVS [FLT4_Y1230]: the enrichment score is active: 3.91.
Still for that read-out and setting: the result for GRVLGYGAFRK [FLT4_Y853_G857R] reads inactive: 0.242; that for KGEDFYCVTYH [FHL1_Y149_C153Y], inactive: 1.96.
Consider GEVLVYVEDPA [FLNA_Y319], for which the enrichment score is inactive: 0.967.
Still for that read-out and setting: the result for SRGSSYNSIPK [FLNC_Y2625_S2626N] reads inactive: 0.511; that for HQPGEYIFHAE [FLT3_Y416], inactive: 0.949; that for NAGAFYVLSTL [FLVCR2_Y325_A326V], inactive: 0.713.
Still for that read-out and setting: for EVNQDYGLDPK [FH_Y110] the value was inactive: 0.425.
Still for that read-out and setting: for TYAVSYLPDMS [FLNC_Y1602_T1599A] the value was inactive: 1.14.
Turning to KPNMNYDKLSR [FLI1_Y332], the enrichment score is inactive: 0.867.
Consider GGQVFYNSEFG [FLT4_Y1333_YF], for which the enrichment score was inactive: 1.19.
Same read-out and setting: the result for KPNMNYDKLSQ [FLI1_Y332_R337Q] reads inactive: 0.667.
Same read-out and setting: the result for KSEKVYTRHGV [FLOT1_Y56] reads inactive: 0.665.
Take FRVDCYKNFVA [FHL1_Y213_C209R_YF]: the enrichment score was inactive: 1.27.
The same measure, in the same setting: the result for TFAVSYLPDMS [FLNC_Y1602_T1599A_YF] reads inactive: 1.22; that for HQPGEYLFHAE [FLT3_Y416_I417L], inactive: 0.916; that for YTGSTYRVGDT [FN1_Y106_N104S], inactive: 0.676.
The same measure, in the same setting: the result for QPGTDYKIYLY [FN1_Y1970] reads inactive: 0.803.

Another experiment deals with SHP2 N-SH2 domain T42A. The description is as above. The conditions noted are these: peptide library: pTyr-Var.
SLAARYYNWVS [FLT4_Y1230]: the enrichment score was active: 3.6.
Still for that read-out and setting: for GRVLGYGAFRK [FLT4_Y853_G857R] the value was inactive: 0.317; for KGEDFYCVTYH [FHL1_Y149_C153Y], inactive: 0.794.
Same read-out and setting: for GEVLVYVEDPA [FLNA_Y319] the value was inactive: 1.41.
The same measure, in the same setting: for SRGSSYNSIPK [FLNC_Y2625_S2626N] the value was inactive: 0.47; for HQPGEYIFHAE [FLT3_Y416], inactive: 0.531.
Take NAGAFYVLSTL [FLVCR2_Y325_A326V]: the enrichment score is inactive: 0.671.
The same measure, in the same setting: the result for EVNQDYGLDPK [FH_Y110] reads inactive: 0.613.
As to TYAVSYLPDMS [FLNC_Y1602_T1599A], the enrichment score is inactive: 0.82.
Consider KPNMNYDKLSR [FLI1_Y332], for which the enrichment score is inactive: 0.566.
Still for that read-out and setting: the result for GGQVFYNSEFG [FLT4_Y1333_YF] reads inactive: 1.12; that for KPNMNYDKLSQ [FLI1_Y332_R337Q], inactive: 0.551.
Still for that read-out and setting: for KSEKVYTRHGV [FLOT1_Y56] the value was inactive: 0.548; for FRVDCYKNFVA [FHL1_Y213_C209R_YF], inactive: 0.94; for TFAVSYLPDMS [FLNC_Y1602_T1599A_YF], inactive: 1.13.
Turning to HQPGEYLFHAE [FLT3_Y416_I417L], the enrichment score is inactive: 0.718.
For the molecule YTGSTYRVGDT [FN1_Y106_N104S], the enrichment score was inactive: 0.568.
On the same count and under the same terms, the result for QPGTDYKIYLY [FN1_Y1970] reads inactive: 0.843.

Another experiment concerns the target SHP2 N-SH2 domain T52S. The experiment is described as above. The following applies: peptide library: pTyr-Var.
Regarding SLAARYYNWVS [FLT4_Y1230], the enrichment score was active: 3.98.
The same measure, in the same setting: for GRVLGYGAFRK [FLT4_Y853_G857R] the value was inactive: 0.247.
Take KGEDFYCVTYH [FHL1_Y149_C153Y]: the enrichment score was inactive: 1.5.
Still for that read-out and setting: the result for GEVLVYVEDPA [FLNA_Y319] reads inactive: 1.
Regarding SRGSSYNSIPK [FLNC_Y2625_S2626N], the enrichment score is inactive: 0.423.
Take HQPGEYIFHAE [FLT3_Y416]: the enrichment score is inactive: 1.15.
As for NAGAFYVLSTL [FLVCR2_Y325_A326V], the enrichment score is inactive: 0.788.
On the same count and under the same terms, the result for EVNQDYGLDPK [FH_Y110] reads inactive: 0.467; that for TYAVSYLPDMS [FLNC_Y1602_T1599A], inactive: 0.991.
The same measure, in the same setting: for KPNMNYDKLSR [FLI1_Y332] the value was inactive: 0.566; for GGQVFYNSEFG [FLT4_Y1333_YF], inactive: 1.17.
The same measure, in the same setting: the result for KPNMNYDKLSQ [FLI1_Y332_R337Q] reads inactive: 0.581; that for KSEKVYTRHGV [FLOT1_Y56], inactive: 0.637.
Turning to FRVDCYKNFVA [FHL1_Y213_C209R_YF], the enrichment score is inactive: 1.05.
TFAVSYLPDMS [FLNC_Y1602_T1599A_YF]: the enrichment score was inactive: 1.34.
On the same count and under the same terms, the result for HQPGEYLFHAE [FLT3_Y416_I417L] reads inactive: 0.949; that for YTGSTYRVGDT [FN1_Y106_N104S], inactive: 0.522; that for QPGTDYKIYLY [FN1_Y1970], inactive: 0.59.

The target in another experiment is SHP2 N-SH2 domain wild-type. Described as above. The following applies: peptide library: pTyr-Var.
With SLAARYYNWVS [FLT4_Y1230], the enrichment score was active: 3.32.
On to GRVLGYGAFRK [FLT4_Y853_G857R], for which the enrichment score is inactive: 0.313.
Regarding KGEDFYCVTYH [FHL1_Y149_C153Y], the enrichment score is inactive: 1.14.
On to GEVLVYVEDPA [FLNA_Y319], for which the enrichment score is inactive: 1.08.
The same measure, in the same setting: the result for SRGSSYNSIPK [FLNC_Y2625_S2626N] reads inactive: 0.619.
Same read-out and setting: for HQPGEYIFHAE [FLT3_Y416] the value was inactive: 1.51; for NAGAFYVLSTL [FLVCR2_Y325_A326V], inactive: 0.868; for EVNQDYGLDPK [FH_Y110], inactive: 0.633.
For TYAVSYLPDMS [FLNC_Y1602_T1599A], the enrichment score was inactive: 0.806.
With KPNMNYDKLSR [FLI1_Y332], the enrichment score is inactive: 0.675.
On the same count and under the same terms, the result for GGQVFYNSEFG [FLT4_Y1333_YF] reads inactive: 1.22; that for KPNMNYDKLSQ [FLI1_Y332_R337Q], inactive: 0.694.
Same read-out and setting: for KSEKVYTRHGV [FLOT1_Y56] the value was inactive: 0.892; for FRVDCYKNFVA [FHL1_Y213_C209R_YF], inactive: 1.06.
Regarding TFAVSYLPDMS [FLNC_Y1602_T1599A_YF], the enrichment score is inactive: 1.27.
As for HQPGEYLFHAE [FLT3_Y416_I417L], the enrichment score was inactive: 1.03.
On the same count and under the same terms, for YTGSTYRVGDT [FN1_Y106_N104S] the value was inactive: 0.697; for QPGTDYKIYLY [FN1_Y1970], inactive: 0.974.
